Results from PubChem BioAssay AID485294 (National Center for Advancing Translational Sciences (NCATS), 2010).
Screen size: about 370,000 compounds; about 150 (0.041%) were called active. The shares of active, inactive and inconclusive entries below differ from those in the screen. Calls follow the shape of the dose curve; as a rule, active = well fitted inhibition curve with a large enough effect; inconclusive = small, poorly fitted or top-dose-only effect; inactive = flat fitted curve, though single readings scatter. No potency is given beside an inconclusive call; the fits are too rough.

These compounds were tested against Beta-lactamase (Escherichia coli (strain K12)) (UniProt P00811) (assay: qHTS Inhibitors of AmpC Beta-Lactamase (assay with detergent)). Conditions: AmpC hydrolysis of nitrocefin, absorbance 480 nm, 0.01% Triton; activity change, negative = inhibition: at 114 µM (top of the series).
Chain of UniProt P00811 (P00811 whole entry, looked up): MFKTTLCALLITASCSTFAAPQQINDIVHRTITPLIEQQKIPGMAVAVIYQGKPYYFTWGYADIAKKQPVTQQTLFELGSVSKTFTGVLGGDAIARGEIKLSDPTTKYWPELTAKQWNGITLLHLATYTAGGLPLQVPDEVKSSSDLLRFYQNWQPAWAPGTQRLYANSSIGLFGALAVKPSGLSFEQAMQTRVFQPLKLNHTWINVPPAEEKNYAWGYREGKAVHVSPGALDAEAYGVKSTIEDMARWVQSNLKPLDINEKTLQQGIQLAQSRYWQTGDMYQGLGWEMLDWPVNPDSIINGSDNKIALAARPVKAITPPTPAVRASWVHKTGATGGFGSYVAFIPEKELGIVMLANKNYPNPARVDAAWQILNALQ
Procedure, shortened: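 20 mM phosphate pH 7.0 + 0.01% (detergent screen) or 0.0001% Triton X-100; 5.3 nM AmpC reagent; cpd preinc 15 min RT; nitrocefin (800 uM stock) to start; A480 q20 s × 4 min; Activity was normalised to no-enzyme and no-compound control wells.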
Also: nearly all actives have a fitted effect of over 25% in size.
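For activity change, negative = inhibition in this document: 0% = no-compound wells and -100% = no-enzyme wells.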
Potency is read from the fitted curve at half-maximal effect; tags tell the direction and shape of the fitted curve.

| SMILES | activity change, negative = inhibition | Potency |
| --- | --- | --- |
| COc1ccc2c(c1OC)C(=O)N1c3ccccc3C(=O)N(c3ccccc3)C21 (stereo not given) | inactive: -8.54% |  |
| CCOc1ccccc1NC(=O)CN1C(=O)COc2ccc(S(=O)(=O)N3CCCCC3)cc21 |  | inconclusive [inhibitor, single point] |
| Cc1cc(N2CCOCC2)nc2cc(O)ccc12 |  | inconclusive [inhibitor, full curve, poor fit] |
| CCOc1cccc(NC(=O)C2CC(=O)N(C)C(=Nc3ccc(F)cc3)S2)c1 (stereo not given) | inactive: 0.49% |  |
| CCCn1c(CCC(=O)O)nc2cc(S(=O)(=O)N3CCCC3)ccc21 |  | inconclusive [inhibitor, partial curve] |
| CCOc1ccc(C(=O)CC(C(=O)O)N2CCCCC2)cc1 (stereo not given) |  | inconclusive [inhibitor, full curve, poor fit] |
| CN(Cc1ccccc1)C(=O)COc1cc(=O)n(C)c2ccccc12 |  | inconclusive [inhibitor, full curve, poor fit] |
| CCc1ccc(N2C(=O)Nc3ccccc3C2(O)C(=O)N2CCN(c3ccccn3)CC2)cc1 (stereo not given) | inactive: 3.38% |  |
| O=c1c2cnn(-c3ccc(F)cc3)c2ncn1Cc1cccnc1 | inactive: 1.49% |  |
| Cc1ccc(C)c(N2CCN(C(=O)CC3Sc4ccccc4NC3=O)CC2)c1 (stereo not given) | inactive: 7.57% |  |
| CCn1c(=N)n(CCOc2ccc(OC)cc2)c2ccccc21 |  | inconclusive [inhibitor, full curve, poor fit] |
| CCN(CCNC(=O)c1ccc(CSc2nc3ccncc3[nH]2)cc1)c1ccccc1 | inactive: 3.37% |  |
| Cc1ccc(S(=O)(=O)C(CNC(=O)Cc2ccc(Cl)cc2)c2cccs2)cc1 (stereo not given) | inactive: -3.08% |  |
| Cc1cc(C(=O)NCCN2CCN(c3cccc(Cl)c3)CC2)n(-c2ccccc2)n1 |  | inconclusive [inhibitor, partial curve] |
| CCc1ccc2oc(-c3ccc(N)cc3)nc2c1 |  | inconclusive [inhibitor, full curve] |
| CC(CCc1ccccc1)NC(=O)C1CCN(C(=O)c2sccc2-n2cccc2)CC1 (stereo not given) |  | inconclusive [inhibitor, partial curve, poor fit] |
| CSc1ccc(/C=C/c2cc(=O)c3ccccc3[nH]2)cc1 | inactive: -5% |  |
| CC(C)CC(OC(=O)c1ccco1)C(=O)NCC1CCCO1 (stereo not given) |  | inconclusive [inhibitor, full curve, poor fit] |
| CN(Cc1cc(=O)n2ccsc2n1)Cc1nc2ccccc2c(=O)[nH]1 |  | inconclusive [inhibitor, partial curve, poor fit] |
| O=C(O)C(Cc1ccccc1)N1C(=O)/C(=C/C=C/c2ccco2)SC1=S (stereo not given) |  | inconclusive [inhibitor, partial curve] |
| Cc1ccc(NC(=O)NCc2cccnc2)cc1Cl |  | inconclusive [inhibitor, partial curve] |
| CCOc1cc2sc(N3CCC(C(=O)NCCCN4CCCC4=O)CC3)nc2cc1Br |  | inconclusive [inhibitor, full curve, poor fit] |

| SMILES | activity change, negative = inhibition | Potency |
| --- | --- | --- |
| Cc1ccc(-c2cc(C(=O)NC3CCN(Cc4ccccc4)CC3)c3ccccc3n2)cc1 |  | inconclusive [inhibitor, full curve] |
| CC1CCC(NC(=O)c2ccc(/C=C3\Oc4ccccc4N(C)C3=O)cc2)CC1 (stereo not given) |  | inconclusive [inhibitor, partial curve, poor fit] |
| CC(C)S(=O)(=O)c1oc(-c2cccs2)nc1S(=O)(=O)c1ccc(F)cc1 |  | inconclusive [inhibitor, single point] |
| O=C(Nc1ccc(S(=O)(=O)NC2CCCCC2)cc1)c1ccco1 |  | inconclusive [inhibitor, full curve, poor fit] |
| Cc1cc(C)nc(SCCCn2c(=O)[nH]c3ccccc32)n1 |  | inconclusive [inhibitor, full curve] |
| COc1ccc(CNC(=O)[C@H](NC(=O)C2CCN(C(=O)[C@@H](N)CCSC)CC2)C(C)C)cc1 |  | inconclusive [inhibitor, full curve, poor fit] |
| N=C1C(c2nc(-c3ccc(Br)cc3)cs2)=C(O)CN1NC(=O)c1ccc([N+](=O)[O-])cc1 | inactive: 1.37% |  |
| O=C(CN1CCC(n2nnc3ccccc32)CC1)NCc1cccs1 |  | inconclusive [inhibitor, partial curve, poor fit] |
| CCCc1nc(N)nc2c1C(=O)CC(C)(C)C2 |  | inconclusive [inhibitor, partial curve, poor fit] |
| COCCn1nnnc1C(c1ccc(C)cc1)N1CCN(Cc2ccc3c(c2)OCO3)CC1 (stereo not given) |  | inconclusive [inhibitor, partial curve] |
| CN(C1(C)CCS(=O)(=O)C1)S(=O)(=O)c1cccc([N+](=O)[O-])c1 (stereo not given) |  | inconclusive [inhibitor, full curve, poor fit] |
| C[C@H](NC(=O)c1nc[nH]c1C(=O)NCC(=O)OCc1ccccc1)C(=O)OCc1ccccc1 |  | inconclusive [inhibitor, partial curve, poor fit] |
| COc1ccccc1-c1nnc(NC(=O)C(C)SC2=NCCS2)s1 (stereo not given) |  | inconclusive [inhibitor, full curve, poor fit] |
| Nc1ncnc2c1ncn2CCOc1ccccc1 |  | inconclusive [inhibitor, full curve, poor fit] |
| Cc1cc(C(=O)Nc2ccc3nc(C)sc3c2)c2ccccc2n1 |  | inconclusive [inhibitor, single point] |
| CCOC(=O)c1csc(NC(=O)Nc2cccc(Cl)c2)n1 |  | inconclusive [inhibitor, full curve, poor fit] |
| Cc1ccc(OCCn2c(-c3ccc(Br)cc3)nc3ccccc3c2=O)cc1C | inactive: 6.51% |  |
| CCc1ccccc1N(CC(=O)OC)S(C)(=O)=O |  | inconclusive [inhibitor, partial curve, poor fit] |
| CN(C)/C=C1/C=C(c2ccccc2)OC1=O |  | inconclusive [inhibitor, full curve, poor fit] |
| COc1ccc(S(=O)(=O)NCc2cc(=O)n(C)c(=O)n2C)cc1C |  | inconclusive [inhibitor, partial curve, poor fit] |
| COc1ccc(NC(=O)Cn2c(=O)n(Cc3ccccc3Cl)c(=O)c3cc(OC)c(OC)cc32)cc1OC | inactive: 22.9% |  |
| CCCCCn1nc(C(=O)OCC(=O)c2c(N)n(C)c(=O)n(C)c2=O)c2ccccc2c1=O | inactive: 9.6% |  |

| SMILES | activity change, negative = inhibition | Potency |
| --- | --- | --- |
| CCCCCn1c(=O)[nH]c2cc(C(=O)NCCc3ccc(OC)c(OC)c3)ccc2c1=O |  | inconclusive [inhibitor, full curve, poor fit] |
| CN(C)S(=O)(=O)Nc1cccc(-c2cn3c(n2)SCC3)c1 |  | inconclusive [inhibitor, single point] |
| O=C(CSc1nc2c([nH]c3ccccc32)c(=O)n1-c1ccccc1)N1CCOCC1 |  | inconclusive [inhibitor, partial curve] |
| CC(C)OC(=O)c1c(NC(=O)COc2cccc(Br)c2)sc2c1CCCC2 | inactive: 7.57% |  |
| Cc1ccc(C(=O)CCC(=O)Nc2ccccc2F)cc1 |  | inconclusive [inhibitor, partial curve, poor fit] |
| CCCCNC(=O)c1ccccc1SCC(=O)NC1CCCCCCC1 |  | inconclusive [inhibitor, full curve, poor fit] |
| O=C(COc1ccc(S(=O)(=O)NC2CCCCC2)cc1)NC1CCCC1 | inactive: -5.34% |  |
| CC(=O)NC12CC3CC(C1)CC(C(=O)OCC(=O)Nc1ncc(Cl)c(C)c1Cl)(C3)C2 |  | inconclusive [inhibitor, full curve, poor fit] |
| C=CCn1c(COc2cccc3cccnc23)nnc1SCC(=O)O |  | inconclusive [inhibitor, full curve, poor fit] |
| C=CCNC(=O)/C(C#N)=C/c1ccccc1[N+](=O)[O-] |  | inconclusive [inhibitor, full curve, poor fit] |
| CN(C)S(=O)(=O)c1cccc(N=C2NN=C(c3ccccc3)CS2)c1 |  | inconclusive [inhibitor, full curve, poor fit] |
| O=C(NCCc1ccccc1)c1ccc(S(=O)(=O)N2CCCC2)cc1 |  | inconclusive [inhibitor, full curve, poor fit] |
| COc1ccc(S(=O)(=O)N2CCC3(CC2)CC(=O)c2ccccc2O3)cc1OC |  | inconclusive [inhibitor, full curve, poor fit] |
| O=C1C2=C(CCCC2)C(=O)N1c1cccc(OCCBr)c1 | inactive: 2.84% |  |
| O=C(COC(=O)c1ccccc1NS(=O)(=O)c1cccs1)NCC12CC3CC(CC(C3)C1)C2 |  | inconclusive [inhibitor, full curve] |
| O=C(O)CSc1nnnn1-c1ccccc1 |  | inconclusive [inhibitor, single point] |
| CCN(Cc1ccccc1)C(=O)c1cc(S(=O)(=O)N2CCOCC2)cn1C |  | inconclusive [inhibitor, full curve, poor fit] |
| Fc1ccccc1-c1nc2ccccc2[nH]1 | inactive: -6.51% |  |
| O=C(O)c1ccc2c(=O)n3c(nc2c1)/C(=C/c1ccc(Cl)c(Cl)c1)CC3 |  | inconclusive [inhibitor, partial curve, poor fit] |
| O=[N+]([O-])c1cc(Br)c(Nc2ccccc2)c([N+](=O)[O-])c1 | inactive: -7.53% |  |
| CC(C)(C)c1ccc(C2=NC(C)(C)N(CC(=O)Nc3ccc(F)c(F)c3)C2=O)cc1 | inactive: 1.15% |  |
